Measured values published in PubChem BioAssay AID588591 (National Center for Advancing Translational Sciences (NCATS), 2011).
The whole screen tested about 390,000 compounds, of which about 4,700 (1.2%) were called active. Inconclusive means that the source gave no clear call. Such entries were picked first, then a sample of the others. The call rests on the fitted dose curve; in most records, active means well fitted inhibition curve with a large enough effect; inconclusive means small, poorly fitted or top-dose-only effect, or another doubt; inactive means no such curve, though single readings can be large or run the other way. Potencies beside an inconclusive call are fits to weak or partial responses and may not hold up.

molecular target: DNA polymerase eta (Homo sapiens) (UniProt Q9Y253); experiment: qHTS for Inhibitors of Polymerase Eta; conditions: recombinant Pol eta, fluorescent DNA replication assay; series mostly up to 114 µM; activity change, negative = inhibition: at the top concentration
In short: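 Fluorescent replication assay: 50 nM final substrate added after a 15 min room-temperature compound preincubation with 10 nM enzyme. Signal taken at 0 min and again at 10 min.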
On the % scale 0 is the no-effect control and ±100 the full control effect; potency means the concentration at half of the fitted maximal effect; tags describe the fitted curve by direction and shape.

Sequence of UniProt Q9Y253 (Q9Y253 whole entry, looked up): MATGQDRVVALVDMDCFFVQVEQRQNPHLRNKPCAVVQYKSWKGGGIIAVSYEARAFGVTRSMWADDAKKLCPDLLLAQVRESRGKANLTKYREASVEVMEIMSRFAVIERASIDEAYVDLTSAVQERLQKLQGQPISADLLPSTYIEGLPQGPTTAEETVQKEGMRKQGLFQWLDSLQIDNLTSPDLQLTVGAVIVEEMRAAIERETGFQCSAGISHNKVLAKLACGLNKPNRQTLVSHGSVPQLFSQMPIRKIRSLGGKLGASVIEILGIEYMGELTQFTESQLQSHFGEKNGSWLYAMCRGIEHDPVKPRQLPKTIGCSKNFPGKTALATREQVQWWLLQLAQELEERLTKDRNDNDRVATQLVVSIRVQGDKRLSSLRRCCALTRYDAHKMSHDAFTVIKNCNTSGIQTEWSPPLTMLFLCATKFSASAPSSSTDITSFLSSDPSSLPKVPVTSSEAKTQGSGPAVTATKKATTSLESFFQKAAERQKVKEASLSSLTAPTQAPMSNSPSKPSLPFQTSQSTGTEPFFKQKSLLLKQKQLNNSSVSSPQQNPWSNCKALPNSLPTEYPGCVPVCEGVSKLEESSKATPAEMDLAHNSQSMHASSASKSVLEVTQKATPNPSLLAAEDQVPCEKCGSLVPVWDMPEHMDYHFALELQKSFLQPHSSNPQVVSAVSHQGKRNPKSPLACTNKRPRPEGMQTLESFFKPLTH

Compound | Potency | activity change, negative = inhibition
O=C1C=C(c2ccccc2)CC(c2cccs2)C1n1cnc([N+](=O)[O-])c1 (configuration not stated) | inconclusive: 15.8 µM [inhibitor, partial curve, poor fit] | –
CCCN(CCC)c1nc2ccccc2nc1C(C#N)C(=O)OCCOC (configuration not stated) | inconclusive: 31.6 µM [inhibitor, partial curve, poor fit] | –
CCc1sc(/C=C(/C#N)C(N)=S)cc1[N+](=O)[O-] | active: 20 µM | –
O=Cc1cn(-c2ccccc2)nc1-c1cc2ccccc2oc1=O | inconclusive: 10 µM [inhibitor, partial curve] | –
CC(C)(C)c1ccc(C(=O)OC/C(O)=C(\C#N)c2nc3ccccc3s2)cc1 | inconclusive: 25.1 µM [inhibitor, partial curve] | –
CCOc1cnn(-c2ccccc2)c(=O)c1Cl | inconclusive: 100 µM [inhibitor, partial curve, poor fit] | –
Cn1nc(C(=O)Nc2nc(-c3ccccn3)cs2)c2ccccc2c1=O | inconclusive: 44.7 µM [inhibitor, partial curve, poor fit] | –
Cc1ccc(CN(Cc2ccco2)c2cnc(S(C)(=O)=O)nc2C(=O)Nc2ccccc2Br)o1 | – | inactive: -18.6%
CCCCC(CC)CN=C(N)NC(N)=NCCCCCCN=C(N)NC(N)=NCC(CC)CCCC (configuration not stated) | active: 89.1 µM | –
Cn1c(=O)c2nc(SCC(=O)Nc3ccc(Cl)c(Cl)c3)n(C)c2n(C)c1=O | – | inactive: -15.3%
COc1ccc(/C=C/C(=O)NCC(=O)N/N=C/c2cc(Br)ccc2OCc2ccccc2)cc1 | inconclusive: 10 µM [inhibitor, partial curve] | –
CCc1ccc(-n2c(SCc3cccc(F)c3)nc3[nH]ncc3c2=O)cc1 | inconclusive: 44.7 µM [inhibitor, partial curve, poor fit] | –
CC(C(=O)N(C)C1CCS(=O)(=O)C1)N1C(=O)/C(=C/c2ccco2)SC1=S (configuration not stated) | active: 22.4 µM | –
Cc1[nH][nH]c(=O)c1C(c1ccc(-c2ccc(Cl)c(C(=O)O)c2)o1)c1c(C)[nH][nH]c1=O | active: 10 µM | –
Cc1ccccc1N=C1NC(=O)/C(=C/c2cccn2-c2cccc(C(=O)O)c2)S1 | active: 17.8 µM | –
CCOC(=O)c1c(Cc2ccccc2)c[nH]c1C | inconclusive: 79.4 µM [inhibitor, partial curve, poor fit] | –
COC(=O)CN(c1ccc(OC)cc1)S(=O)(=O)c1c(C)noc1C | inconclusive: 22.4 µM [inhibitor, partial curve] | –
Cc1ccc(C(=O)Nc2cccc(C(F)(F)F)c2)cc1Nc1ncnc2nc[nH]c12 | inconclusive: 28.2 µM [inhibitor, single point] | –
Cc1cc(/C=C(/C#N)c2nc3ccccc3[nH]2)c(C)n1-c1cc(C(=O)O)cc(C(=O)O)c1 | active: 3.98 µM | –
CC(=C\c1ccccc1)/C=C1/SC(=S)N(C(C(=O)O)C(C)C)C1=O (configuration not stated) | active: 89.1 µM | –
N#Cc1c(NC(=O)c2ccc(Cn3cc(Br)cn3)o2)sc2c1CCCCC2 | inconclusive: 20 µM [inhibitor, single point] | –

Compound | Potency | activity change, negative = inhibition
O=c1c2c(nc3n1CCCCC3)sc1c(O)c(Br)ccc12 | – | inactive: 7.49%
COc1cccc(N2CCN(c3ncnc4c3[nH]c3ccc(F)cc34)CC2C)c1 (configuration not stated) | inconclusive: 39.8 µM [inhibitor, single point] | –
CCN(CC(=O)NC(=O)NCc1ccco1)Cc1nc2ccccc2c(=O)[nH]1 | inconclusive: 14.1 µM [inhibitor, full curve] | –
O=C(OCC(=O)c1ccc(Cl)s1)c1cnccn1 | inconclusive: 28.2 µM [inhibitor, partial curve] | –
O=C(COC(=O)c1ccc([N+](=O)[O-])s1)NCc1ccccc1 | inconclusive: 20 µM [inhibitor, full curve, poor fit] | –
COc1ccc(C(=O)Nc2nc3cc(OC)c(OC)cc3c(=O)[nH]2)cc1 | inconclusive: 31.6 µM [inhibitor, single point] | –
O=C(Nc1cccc(Cl)c1)c1ccncc1 | – | inactive: -8.33%
CC1C(=O)N(Cc2cn(CCC3OCCO3)nn2)CCS(=O)(=O)N1Cc1ccc(-c2ccc(F)cc2)cc1 (configuration not stated) | inconclusive: 22.4 µM [inhibitor, partial curve, poor fit] | –
N#Cc1ccsc1NC(=O)CN1CCN(S(=O)(=O)c2cc(Cl)ccc2Cl)CC1 | inconclusive: 39.8 µM [inhibitor, partial curve, poor fit] | –
CCOC(=O)c1cc2c(=O)n3ccccc3nc2n(Cc2ccco2)c1=NC(=O)c1ccc(F)cc1 | – | inactive: 1.02%
CC(NC(=O)/C(C#N)=C/c1ccc([N+](=O)[O-])o1)c1ccccc1 (configuration not stated) | active: 50.1 µM | –
O=C1CCCc2[nH]c(=O)c(-c3nc(-c4cccc([N+](=O)[O-])c4)cs3)cc21 | – | inactive: -19.7%
Cn1c(NCc2ccco2)nc2c1c(=O)n(Cc1ccc(Cl)c(Cl)c1)c(=O)n2C | inconclusive: 15.8 µM [inhibitor, partial curve, poor fit] | –
O=C(NC12CC3CC(CC(C3)C1)C2)c1ccccc1O | inconclusive: 39.8 µM [inhibitor, partial curve, poor fit] | –
Cc1noc(C)c1CSc1nc2ccccc2c(=O)n1-c1ccc(F)cc1F | inconclusive: 50.1 µM [inhibitor, partial curve, poor fit] | –
O=C(NCc1ccco1)c1cccc(NC(=O)c2ccco2)c1 | inconclusive: 100 µM [inhibitor, single point] | –
Cc1ccc(O)c(-c2cc(C(=O)Nc3ccc(S(=O)(=O)Nc4nccc(C)n4)cc3)[nH]n2)c1 | inconclusive: 79.4 µM [inhibitor, partial curve, poor fit] | –
O=C(Nc1ccccc1)C1Cc2ccccc2CN1C(=O)c1ccco1 (configuration not stated) | inconclusive: 14.1 µM [inhibitor, partial curve, poor fit] | –
CC(=O)c1ccc(NC(=S)N2CCN(c3ccccn3)CC2)cc1 | active: 89.1 µM | –
O=C1C=C(NCCc2cc(Br)c(O)c(Br)c2)C(=O)c2ncccc21 | active: 3.55 µM | –
CN(C)CCCNS(=O)(=O)c1ccc(N2CCN(Cc3ccc4c(c3)OCO4)CC2)c([N+](=O)[O-])c1 | – | inactive: 4.54%
